According to PubChem BioAssay AID226 (DTP/NCI, 2004):
Toxic doses and inconclusive results are not listed. Some entries of the source have several records that differ or are many. This is not the full list of results. There may be further records. Values given together are repeated measurements across runs, samples, wells, individuals or studies.

System: B6C3F1 mice, intracerebral ependymoblastoma, median survival T/C
Experiment: NCI In Vivo Anticancer Drug Screen. Data for tumor model Ependymoblastoma (intracerebral) in B6C3F1 mice
Settings: endpoint: median survival time, higher = longer survival
Method: The antitumor activity of compounds was measured in mice bearing transplantable tumors. Survival or tumor size were measured and the results are expressed as the measurement made in the treated group (T) divided by the measurement made in the vehicle treated control group (C). The tumor model used in this assay is Ependymoblastoma (intracerebral) in B6C3F1 mice

[1] = dose: 64.0 mg/kg/injection, schedule: Q01DX005 (ip), vehicle: saline with Tween-80

N[C@@H](Cc1ccc(N(CCCl)CCCl)cc1)C(=O)O
T/C (dose: 4.0 mg/kg/injection, schedule: Q01DX005 (ip), vehicle: saline): 114 % of control and 154 % of control

O=NN(CCCl)C(=O)NCCCl
T/C (dose: 4.0 mg/kg/injection, schedule: Q01DX005 (ip), vehicle: saline with Tween-80): 120 % of control and 154 % of control

CN(N=O)C(N)=O
T/C (dose: 8.0 mg/kg/injection, schedule: Q01DX005 (ip), vehicle: Klucel (hydroxypropylcellulose) (HPC)): 120 % of control and 152 % of control | T/C (dose: 64.0 mg/kg/injection, schedule: Q01DX001 (ip), vehicle: saline + alcohol): 118 % of control and 159 % of control

O=c1n(CC2CO2)c(=O)n(CC2CO2)c(=O)n1CC1CO1 (stereo not drawn)
T/C (dose: 25.0 mg/kg/injection, schedule: Q01DX009 (ip), vehicle: saline): 123 % of control and 155 % of control | T/C (dose: 40.0 mg/kg/injection, schedule: Q01DX009 (ip), vehicle: saline): 117 % of control and 160 % of control

CN(C)/N=N/c1nc[nH]c1C(N)=O
T/C (dose: 32.0 mg/kg/injection, schedule: Q01DX005 (ip), vehicle: saline with Tween-80): 110 % of control and 151 % of control | T/C [1]: 109 % of control and 160 % of control | T/C (dose: 256.0 mg/kg/injection, schedule: Q01DX005 (ip), vehicle: saline with Tween-80): 123 % of control and 156 % of control

CN(C)N=Nc1ccc([N+](=O)[O-])cc1C(N)=O
T/C [1]: 100 % of control and 153 % of control | T/C (dose: 128.0 mg/kg/injection, schedule: Q01DX005 (ip), vehicle: saline with Tween-80): 123 % of control and 181 % of control

O=NN(CCCl)C(=O)NC1CCC(=O)NC1=O (stereo not drawn)
T/C (dose: 2.0 mg/kg/injection, schedule: Q01DX005 (ip), vehicle: suspension in saline): 110 % of control and 157 % of control

COC(=O)c1ccc(N=NN(C)C)cc1
T/C (dose: 64.0 mg/kg/injection, schedule: Q01DX005 (ip), vehicle: saline + alcohol): 121 % of control and 164 % of control
